Experimental data: PubChem BioAssay AID1347165 (National Center for Advancing Translational Sciences (NCATS), 2019)
Screen size: about 220,000 compounds; about 5,700 (2.6%) were called active. Inconclusive results, whose numbers are uncertain, are shown with a selection of clear calls. Calls follow the shape of the dose curve; as a rule, active = well fitted inhibition curve with a large enough effect; inconclusive = small, poorly fitted or top-dose-only effect; inactive = no such curve, though single readings can be large or run the other way. Where the call is inconclusive, the potency comes from a doubtful curve fit.

These molecules were tested against Lysine-specific demethylase 5B (Homo sapiens) (UniProt Q9UGL1) (assay: Primary screen for KDM5B Histone Demethylases FDH-coupled qHTS). Conditions: FDH-coupled NADH fluorescence (FDH is formaldehyde dehydrogenase); activity change, negative = inhibition: at 57.7 µM (top of the series) unless noted.
Sequence of UniProt Q9UGL1 (Q9UGL1 whole entry, looked up): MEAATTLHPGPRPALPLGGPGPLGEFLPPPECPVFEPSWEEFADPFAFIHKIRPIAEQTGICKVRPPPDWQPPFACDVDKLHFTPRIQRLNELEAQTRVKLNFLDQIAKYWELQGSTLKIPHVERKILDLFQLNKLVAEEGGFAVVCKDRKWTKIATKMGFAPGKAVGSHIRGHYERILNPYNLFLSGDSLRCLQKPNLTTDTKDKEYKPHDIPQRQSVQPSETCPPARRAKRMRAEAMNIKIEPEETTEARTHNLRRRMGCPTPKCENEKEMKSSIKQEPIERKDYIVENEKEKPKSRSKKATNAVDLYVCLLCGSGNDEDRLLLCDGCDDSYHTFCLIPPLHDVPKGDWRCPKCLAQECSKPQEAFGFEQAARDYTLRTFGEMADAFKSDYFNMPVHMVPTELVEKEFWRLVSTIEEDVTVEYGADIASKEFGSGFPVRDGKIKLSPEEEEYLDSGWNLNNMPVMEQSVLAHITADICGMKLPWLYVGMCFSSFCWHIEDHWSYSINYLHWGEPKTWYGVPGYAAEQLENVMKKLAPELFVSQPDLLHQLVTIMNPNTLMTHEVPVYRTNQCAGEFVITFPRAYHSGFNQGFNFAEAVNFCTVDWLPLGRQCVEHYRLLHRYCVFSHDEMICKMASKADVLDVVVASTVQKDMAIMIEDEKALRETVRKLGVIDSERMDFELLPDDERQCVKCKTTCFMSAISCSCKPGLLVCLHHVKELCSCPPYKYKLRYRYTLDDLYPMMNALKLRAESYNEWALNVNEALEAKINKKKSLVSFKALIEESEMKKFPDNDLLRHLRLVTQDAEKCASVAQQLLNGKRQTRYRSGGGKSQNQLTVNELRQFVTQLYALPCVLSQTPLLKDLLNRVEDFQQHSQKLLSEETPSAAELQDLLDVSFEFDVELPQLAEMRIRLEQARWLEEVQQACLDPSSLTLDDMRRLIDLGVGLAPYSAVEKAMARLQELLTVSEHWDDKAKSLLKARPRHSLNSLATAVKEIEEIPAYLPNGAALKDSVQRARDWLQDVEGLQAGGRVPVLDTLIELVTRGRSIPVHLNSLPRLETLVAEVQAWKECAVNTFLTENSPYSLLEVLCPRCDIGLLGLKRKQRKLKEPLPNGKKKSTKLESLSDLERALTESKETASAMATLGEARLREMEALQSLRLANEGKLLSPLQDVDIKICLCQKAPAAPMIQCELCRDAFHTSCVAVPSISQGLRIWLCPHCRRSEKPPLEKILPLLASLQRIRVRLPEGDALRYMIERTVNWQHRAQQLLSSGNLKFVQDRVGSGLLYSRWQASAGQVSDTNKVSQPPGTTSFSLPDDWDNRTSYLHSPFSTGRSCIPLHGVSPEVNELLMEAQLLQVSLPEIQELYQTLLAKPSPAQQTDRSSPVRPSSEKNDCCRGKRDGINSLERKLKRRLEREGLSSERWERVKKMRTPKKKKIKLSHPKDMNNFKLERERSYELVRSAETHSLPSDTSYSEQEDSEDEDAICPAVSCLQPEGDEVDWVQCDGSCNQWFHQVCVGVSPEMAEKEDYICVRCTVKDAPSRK
How it was run: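 Coupled FDH/NAD⁺ fluorescence readout. KDM5BΔAP 200 nM final; compound titration, 10 min RT preincubation; substrate mix 12.5 µM H3K4me3, 25 µM 2-OG, 50 µM Fe(II), 100 µM ascorbate, 0.25 mM NAD⁺, 0.25 U/mL FDH; ΔRFU over 30 min.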
Also: nearly all actives have a fitted effect of over 70% in size.
For activity change, negative = inhibition in this document: 0% is about no effect.
Potency is read from the fitted curve at half-maximal effect; tags tell the direction and shape of the fitted curve.

Compound | Potency | activity change, negative = inhibition
N#CCc1c(C#N)c(N)nc(NCCc2c[nH]c3ccccc23)c1C#N | inactive | –
C/C(=N/OC(=O)c1ccc(-c2cc(Cl)ccc2Cl)o1)c1ccccc1 | inconclusive: 1.78 µM [inhibitor, partial curve, poor fit] | –
COCCNC(=O)C[C@@H]1C[C@@H](C(C)C)[C@H](CNC(=O)C2CC2)C=C1C | active: 35.5 µM | –
CC1=C[C@@H](CNC(=O)C(C)C)[C@H](C(C)C)C[C@H]1Cc1nc2ncccc2[nH]1 | inconclusive: 39.8 µM [inhibitor, single point] | –
Cc1cccnc1NC(=O)c1cnc2ccccc2n1 | inactive | –
O=C(CC[C@@H]1CNC(=O)[C@@H]2C[C@H](NC(=O)Nc3ccc(F)cc3F)CN12)NC1CC1 | inconclusive: 56.2 µM [inhibitor, partial curve, poor fit] | –
CC(Sc1cc(F)ccc1F)C(N)=O (centres undefined) | inactive | –
C[S+](=O)([O-])c1ccc(-c2nccc3c(=O)cc(-c4ccncc4)oc23)cc1 | active: 31.6 µM | –
Nc1ccc(N2CCN(c3ncc(C(F)(F)F)cc3Cl)CC2)c(C(F)(F)F)c1 | inconclusive: 17.8 µM [inhibitor, single point] | –
COc1cccc2ccc(N3CCN(Cc4ccccc4)CC(O)C3)nc12 (centres undefined) | inconclusive: 31.6 µM [inhibitor, partial curve, poor fit] | –
CCOc1cccc(COC(=O)c2cccc(S(=O)(=O)N3CCOCC3)c2)c1OC(F)F | inactive | –
O=C1N(Cc2ccc(F)cc2)C[C@H]2CN(Cc3ccccn3)CCN12 | inconclusive: 39.8 µM [inhibitor, single point] | –
O=C(CCCn1cncn1)NC1CC(c2cc(=O)[nH]c(C3CC3)n2)C1 (centres undefined) | inactive | –
CC(C)c1ccc(/C=N/NC(=O)CCc2ccccc2)cc1 | inactive | –
Cc1nc(CNCc2cccc(NC(=O)c3ccc(F)cc3)c2)cs1 | inactive | –
COc1ccc2[nH]c3c(c2c1)CCN(C)C31CCN(C(=O)c2ccnn2C)CC1 | inconclusive: 20 µM [inhibitor, partial curve] | –
CC(C)c1ccc(CN2CCC3(CC2)COCCN3C(=O)OCc2ccccc2)cc1 | inactive | –
Cc1ccc(-c2cc(N3CCCN(C(=O)c4cccc(N(C)C)c4)CC3)n[nH]2)cc1C | inconclusive: 14.1 µM [inhibitor, single point] | –
COc1ccc2c(C)cc(SCC(=O)Nc3nsc(-c4ccccc4C)n3)nc2c1 | – | inconclusive: -30.6% [inhibitor]
CCOC(=O)N1CCN(S(=O)(=O)c2cc(OCC)c(C)cc2OCC)CC1 | inactive | –
C#CCNC(=O)C1CCc2nnc(-c3ccc(Cl)cc3Cl)n21 (centres undefined) | inconclusive: 56.2 µM [inhibitor, partial curve, poor fit] | –
CCOC(=O)c1ccccc1NC(=O)Cn1c(=O)n(-c2cccc(C)c2)c(=O)c2c1c1cc(C)ccc1n2C | inconclusive: 31.6 µM [inhibitor, partial curve, poor fit] | –
CCOc1ccc(Cn2c(CNS(=O)(=O)c3ccc(Cl)s3)nc3cccnc32)cc1 | inconclusive: 31.6 µM [inhibitor, partial curve, poor fit] | –

Compound | Potency | activity change, negative = inhibition
Cc1nc(CC(=O)N2CCCC(c3ccc(C(=O)O)cc3)C2)cs1 (centres undefined) | inactive | –
O=S(=O)(c1ccc(Cl)cc1)c1nc(-c2ccco2)oc1N1CCCCC1 | inactive | –
O=C(NCc1nc(-c2ccc(Cl)cc2)no1)c1cc2cc(Cl)ccc2o1 | inactive | –
COc1ccc(Cl)cc1-c1ccc2c(c1)C(=O)N1CCN(C(=O)c3cccs3)C[C@@H]1C(=O)N2 | active: 28.2 µM | –
Ic1cc2c(-c3ccccc3)c(-c3ccccc3)[nH]c2c2ccccc12 | inconclusive: 15.8 µM [inhibitor, partial curve, poor fit] | –
COC(=O)c1cccnc1-n1c(=O)c2cccnc2n(CC(=O)Nc2ccccc2F)c1=O | inconclusive: 6.31 µM [inhibitor, partial curve, poor fit] | –
CCCNC(=O)[C@@H]1CCCN1[C@@H](C(=O)NC)c1ccccc1 | inactive | –
CCn1c(=O)n(CCC(=O)N(C)CC(=O)Nc2ccccc2Br)c2ccccc21 | inactive | –
Cc1ccc(NC(=O)Cn2c(=O)cc(C(=O)N3CCCC3)c3ccccc32)cc1F | inactive | –
CCc1ccccc1NC(=O)c1sc2nc3c(cc2c1N)CN(Cc1ccccc1)CC3 | inconclusive: 35.5 µM [inhibitor, partial curve, poor fit] | –
O=C(CSc1nncn2c1cc1sccc12)Nc1ccc(Br)cc1F | inconclusive: 44.7 µM [inhibitor, single point] | –
CC(=O)Nc1ccccc1-c1c(C)nn2c1N(CCCc1ccccc1)CCC2 | inconclusive: 39.8 µM [inhibitor, partial curve, poor fit] | –
Cc1cccc(CN2CCCn3nc(C)c(-c4ccccc4-c4ccccc4)c32)n1 | inconclusive: 31.6 µM [inhibitor, partial curve, poor fit] | –
COc1cc(NC(=O)Cn2cnc3c(sc4ncccc43)c2=O)cc(OC)c1OC | inactive | –
CN(CC1Cc2ccccc2CN1C)C(=O)c1cnc2nc[nH]n2c1=O (centres undefined) | inconclusive: 6.31 µM [inhibitor, partial curve, poor fit] | –
COc1cc(C2c3c(-c4ccccc4)n[nH]c(=O)c3Nc3nnnn32)ccc1O (centres undefined) | inconclusive: 39.8 µM [inhibitor, single point] | –
COc1ccc(NC(=O)CSc2nc(Cl)nc3nc[nH]c23)cc1OC | inactive | –
O=C(Nc1nc2n(n1)C(c1ccc(F)cc1)C=C(c1ccccc1)N2)c1ccc(Cl)cc1 (centres undefined) | inconclusive: 7.94 µM [inhibitor, partial curve, poor fit] | –
Cc1nc(CN2Cc3nc(Nc4ccc(C(F)(F)F)cc4)ccc3OCC2=O)cs1 | active: 35.5 µM | –
O=C(c1ccc2ncccc2c1)N1CCC2(CC1)NCCc1c2[nH]c2ccccc12 | inconclusive: 31.6 µM [inhibitor, partial curve, poor fit] | –
COc1cccc(OC)c1OCc1ccon1 | inactive | –
COc1ccc(CCNc2nc(-c3ccc(F)cc3)c(CC(=O)O)s2)cc1OC | inconclusive: 17.8 µM [inhibitor, partial curve, poor fit] | –
COc1cc(NC(=O)c2cc3n(n2)CC(c2ccc(Cl)cc2)OC3)cc(OC)c1OC (centres undefined) | inconclusive: 25.1 µM [inhibitor, single point] | –

Compound | Potency | activity change, negative = inhibition
Cc1nn2c(c1-c1ccccc1Oc1ccccc1)N(C(=O)c1ccc(F)cc1)CCC2 | inactive | –
O=C(Cn1ccn2nc(-c3ccccc3)c(CO)c2c1=O)Nc1ccccc1C(F)(F)F | active: 20 µM | –
COc1ccccc1CC(=O)NCc1nnc2cc(-c3nc(C4CC4)no3)ccn12 | inconclusive: 35.5 µM [inhibitor, partial curve, poor fit] | –
NC(=O)CSc1oc(-c2ccco2)nc1S(=O)(=O)c1ccc(Cl)cc1 | inconclusive: 28.2 µM [inhibitor, partial curve, poor fit] | –
Cc1ccc(NC(=O)c2cc3cc(C)ccc3n2C)cc1 | inconclusive: 35.5 µM [inhibitor, partial curve, poor fit] | –
Cc1ccc2oc(C(=O)N3CCC(Cc4ccccc4)CC3)cc(=O)c2c1 | inactive | –
CCOC(=O)c1ccc(NC(=O)Cn2c(=O)cc(C)c3c(C)nn(-c4cccc(F)c4)c32)cc1 | inactive | –
Cc1ccc(-c2nc(C(=O)N3CCN(c4ccccc4C)CC3)no2)cc1 | inconclusive: 17.8 µM [inhibitor, single point] | –
COc1ccc(-c2cc(C(=O)NC(C)(C)C)c3ccccc3n2)c(OC)c1 | inconclusive: 25.1 µM [inhibitor, single point] | –
CN(C(=O)COC(=O)c1n[nH]c2ccccc12)C1CCS(=O)(=O)C1 (centres undefined) | inconclusive: 35.5 µM [inhibitor, partial curve, poor fit] | –
CCc1noc(C)c1C(=O)Nc1ccc(C(C)C)cc1 | inactive | –
COc1cc(C(F)(F)F)ccc1C(=O)NCCc1ccco1 | inconclusive: 28.2 µM [inhibitor, partial curve, poor fit] | –
COc1ccc(CNC2CCCC2)c2ccccc12 | inconclusive: 31.6 µM [inhibitor, partial curve, poor fit] | –
COc1ccc(Cl)cc1S(=O)(=O)N1CCCC(CO)(Cc2cccc(Cl)c2)C1 (centres undefined) | inactive | –
c1ccc(Nc2cc3c(cn2)CN(Cc2ccccn2)CCN3)cc1 | active: 31.6 µM | –
COc1cccc2c1cc1c(=O)n(CC(=O)NC3CCCCC3)nc(C)n12 | inconclusive: 17.8 µM [inhibitor, partial curve, poor fit] | –
CN1CCN(c2nc3ccccc3nc2C(=O)Nc2ccc(Oc3ccc(Cl)cc3)cc2)CC1 | inactive | –
Cc1c(C(=O)OCc2ccccc2)sc(=S)n1-c1ccccc1 | inactive | –
O=C(c1nc2nc(-c3ccco3)cc(C(F)(F)F)n2n1)N1CCC2(CC1)OCCO2 | inconclusive: 20 µM [inhibitor, partial curve, poor fit] | –
O=C(Nc1cc(Cl)ccc1Cl)C1=C(c2ccccc2)S(=O)(=O)CCO1 | inactive | –
CC(C)c1nc(N2CCN(C(=O)c3ccco3)CC2)c(C#N)c2c1COC(C)(C)C2 | inconclusive: 22.4 µM [inhibitor, partial curve, poor fit] | –
Cc1ccc(CNC(=O)c2c(C)noc2-c2ccc3c(c2)OCO3)o1 | active: 25.1 µM | –
COc1ccc(CN2C[C@@H](F)[C@@H](OCc3nc4ccccc4o3)C2)cc1 | inconclusive: 35.5 µM [inhibitor, single point] | –
